Drawing on ChEMBL document CHEMBL1156829, this text covers IFI for 64 compounds.

Over roughly 5,400 compounds, “IFI” has its median near 2; the highest 2% begin near 22. The list shows a part of the results.

A short description of this assay: NOVARTIS: Inhibition Frequency Index (IFI) - the number of HTS assays where a compound showed > 50% inhibition/induction, expressed as a percentage of the number of assays in which the compound was tested. It is filed as functional.
Regarding `Oc1c(C(Nc2ccccn2)c2ccncc2)ccc2cccnc12` (centres undefined), the IFI came out at 15.4%. The compound `COc1cc(C(=O)NC(c2ccccc2Cl)c2cc(Cl)c3cccnc3c2O)cc(OC)c1OC` (centres undefined) displayed an IFI of 0%. The figure for `c1ccc(CSc2nc3ccncc3[nH]2)cc1` is 0%. `COC(=O)C(Nc1ccc(Cl)c(Cl)c1)(c1cc(C)c(O)c(C)c1)C(F)(F)F` (centres undefined) came in with an IFI of 0%. `COc1cccc(CNCCCCCCCCCCCCNCc2cccc(OC)c2O)c1O` had an IFI of 6.01%.

Compound `COc1ccc(C2CC(=O)C3=C(C2)NC(C)=C(C(=O)OC2CCCCC2)C3c2cccc(C)c2)cc1OC` (centres undefined) gave an IFI of 6.52%. `CC1CCCCN1CCCNc1ncc(C(=O)NCc2ccccc2)c(NC2CCCC2)n1` (centres undefined) yielded an IFI of 0.943%. For `Cc1ccnc(NC(c2ccc3ccccc3c2)c2ccc3cccnc3c2O)c1` (centres undefined), the IFI turned out to be 0%. Regarding `CCOC(=O)c1c(NC(=O)c2cccnc2)sc(C)c1CC`, the IFI is 0%. In turn, `COC(=O)c1c(S(=O)(=O)NCc2cccc(Cl)c2)sc2c1CCN(C(=O)C1CCCO1)C2` (centres undefined) yielded an IFI of 8.33%.

The compound `CCN(CC)c1ccc(/C=C/c2ccc3ccc(OC)cc3[n+]2CC)cc1` returned an IFI of 17.1%.

For `O=C(NCCc1ccccc1)c1cnc(NCCCn2ccnc2)nc1Nc1ccccc1`, the IFI was 2.86%.

In the case of `CCc1n(C)c2ccccc2[n+]1CC(=O)c1ccc(Br)cc1`, the IFI was determined as 0%. With `O=C(c1ccncc1)N1N=C(C(F)(F)F)CC1(O)c1cccc([N+](=O)[O-])c1` (centres undefined), the IFI was 0%. In turn, `Nc1nonc1-n1nnc(C(=O)NN=Cc2cccc(Cl)c2)c1-c1ccccc1` registered an IFI of 0%. On to `CCCCN(CCCC)CCCNc1ncnc2c1[nH]c1ccc(Cl)cc12`, for which the IFI stood at 4.88%. In turn, `COc1cncc(-c2cncc(-c3ccc(Oc4ccccc4)cc3)n2)c1` gave an IFI of 0%.

For the compound `COc1cccc(NC(=O)Cn2c(C)c(C#N)c3ccccc32)c1`, the IFI was determined as 0%. `COc1ccccc1CNC(=O)CCC1N=C2c3ccccc3N=C(SCC(=O)Nc3ccc(F)cc3)N2C1=O` (centres undefined) returned an IFI of 6.67%. As to `Cc1c(C#N)c2ccccc2n1CC(=O)NCCc1ccccc1`, the IFI stood at 0%. The value for `CCOC(=O)C1=C(CC)NC2=C(C(=O)CC(C)(C)C2)C1c1ccc(Br)cc1` (centres undefined) was 0%; that for `COC(=O)c1c(-c2c(F)cccc2Cl)noc1/C=C/Nc1ccccc1` was 4%; that for `O=C(Cn1ccc(=NCc2ccccc2)cc1)c1ccc(I)cc1` was 3.03%. Compound `CC1Cc2ccccc2N1C(=O)Cn1c(=O)oc2ccccc21` (centres undefined) registered an IFI of 0%.

For `FC(F)(F)c1cccc(C=NNc2nc3ccccc3[nH]2)c1`, the IFI was found to be 0%. In turn, `CCOC(=O)C1CSC(c2ccc(C(F)(F)F)cc2)N1C(=O)/C=C/c1ccccc1` (centres undefined) had an IFI of 2.83%.

`COc1cncc(-c2cncc(-c3ccc(C)cc3)n2)c1` had an IFI of 4.17%. `CCN(CC)[P+](N(C)C[Si](C)(C)C)(N(CC)CC)N(CC)CC` showed an IFI of 9.09%.

As for `N#Cc1c(-c2ccccc2)cc(N2CCN(Cc3ccc(Cl)cc3)CC2)n2c1nc1ccccc12`, the IFI was 7.5%. For the compound `Cc1c(C(=O)N2CCC(C)CC2)sc2ncn(CC(=O)N3CCN(c4ccccn4)CC3)c(=O)c12`, the IFI was 0%. Turning to `Cc1ccc(C2(C)CC(C)(C)N(C(=O)Cc3ccccc3)c3ccc(C(c4ccccc4)(c4ccccc4)c4ccccc4)cc32)cc1` (centres undefined), the IFI came out at 0%.

`COc1ccccc1C(=O)Oc1ccccc1-c1nc2ccccn2c1NC(C)(C)CC(C)(C)C` registered an IFI of 3.77%. The figure for `Cc1nc2c(C)cccc2c(O)c1CC=C(Cl)Cl` is 7.14%; for `COc1ccc(CCNc2nc(NCCCN3CCCCC3C)ncc2C(=O)NCC(C)C)cc1OC` (centres undefined) it is 2.86%; for `O=C(CCl)NCCOc1ccc(Cl)cc1Cl` it is 7.69%. The figure for `CN(CCCNc1ccnc2cc(Cl)ccc12)S(=O)(=O)c1ccc2ccccc2c1` is 10.2%.

On to `CCN1CCN(c2cc(C)c3cc(NC(=O)/C=C/c4sccc4C)ccc3n2)CC1`, for which the IFI is 7.69%. Take `Cn1nc(C(F)(F)F)c(C(=O)Nc2ccc(Cl)cc2)c1Sc1ccc(Cl)cc1`: the IFI was 4.11%. As to `COc1ccc(C(NC(=O)c2cccc(OC)c2)c2cc(Cl)c3cccnc3c2O)cc1` (centres undefined), the IFI is 0%. The value for `O=C1CN(C(=O)c2cc([N+](=O)[O-])c(N3CCCCC3)c([N+](=O)[O-])c2N2CCCCC2)c2ccccc2N1` was 0%; that for `CC(=O)Nc1ccc(NC(=O)C(C)(C)CCl)cc1` was 2.53%; that for `COC(=O)c1sc2nc(CN3CCCC(C)C3)ccc2c1NC(=O)c1ccc(C)s1` (centres undefined) was 0.87%. As to `N=C1NC(=O)/C(=C/C=C/c2ccc([N+](=O)[O-])o2)S1`, the IFI was determined as 9.68%. The value for `COc1cccc(CN2CCC(O)(c3ccc4oc(C(=O)Nc5ccc(Cl)cc5)cc4c3)CC2)c1` was 3.81%; that for `Fc1ccc(-c2c[n+](Cc3ccc(Cl)cc3Cl)c3n2CCC3)cc1` was 4.76%. The figure for `CCOC(=O)N1CCN(c2ccc(C(F)(F)F)cn2)CC1` is 0%; for `CC(=O)Nc1ccc(C(C)=NNc2nc(Nc3cc(C)ccc3C)nc(N3CCOCC3)n2)cc1` it is 0%; for `N=c1c2c(n(CCc3ccccc3)c3c1CCC3)CCCC2` it is 8.2%.

`Cc1oc2c(c1C(=O)NC1CCS(=O)(=O)C1)C(=O)c1ccccc1C2=O` (centres undefined): the IFI turned out to be 29.7%. Regarding `CCOC(=O)c1ccc(NC(=O)c2cc3ccccn3n2)cc1`, the IFI worked out at 7.69%. With `O=C(Nc1ccccc1O)c1ccc(Cl)cc1`, the IFI came out at 5.13%. On to `O=C(Nc1ccccc1Cl)NC1(C(=O)NCC2CCCO2)CCCCC1` (centres undefined), for which the IFI was 0%. `COc1cc(OC)nc(C(Sc2ccc(NC(=O)c3cccs3)cc2)c2ccccc2)n1` (centres undefined): the IFI was determined as 0.787%. The figure for `c1ccc2c(NCCc3c[nH]c4ccccc34)c3ccccc3nc2c1` is 5.88%.

`Brc1ccc(Nc2nc(NCC3CCCO3)c3ccccc3n2)cc1` (centres undefined) had an IFI of 5.56%. The figure for `Cc1ccccc1NC(=O)N(CCCNC(=O)CCl)c1ccccc1` is 2.78%. The compound `CCOC(=O)C1=C(C)NC2=C(C(=O)CC(c3ccc(OC)cc3)C2)C1c1ccccc1F` (centres undefined) registered an IFI of 3.49%. Consider `CCOC(=O)c1nnn(-c2nonc2-n2cccc2)c1CN1CCCCC1`, for which the IFI came out at 0%.

As for `CCN(CC)CCN(Cc1cc2cc(OC)ccc2[nH]c1=O)C(=S)Nc1ccc(F)cc1`, the IFI was 3.67%. `N#Cc1c2c(c(N3CCN(Cc4ccc(F)cc4)CC3)n3c1nc1ccccc13)CCC2` displayed an IFI of 0%. The value for `COC(=O)C1=C(C)NC2=C(C(=O)CC(C)(C)C2)C1c1ccc(C)o1` (centres undefined) was 0.862%; that for `COc1cccc(NC(=O)N(Cc2ccccc2)C(C)c2nc3ccccc3c(=O)n2-c2cc(C)ccc2OC)c1` (centres undefined) was 3.19%. Consider `CC(C)CNc1nc(NCCCn2ccnc2)ncc1C(=O)NCCc1ccccc1`, for which the IFI stood at 1.91%. Regarding `COc1cccc(CNC(=O)Cn2ncc3c(=O)oc4ccc(C)cc4c32)c1`, the IFI was 0%.
